# PubChem BioAssay AID1768 (National Center for Advancing Translational Sciences (NCATS), 2009)
# Screen size: about 270,000 compounds; about 620 (0.23%) were called active. Inconclusive means that the source gave no clear call. Such entries were picked first, then a sample of the others. Calls come from the whole dose curve; as a rule, active = well fitted inhibition curve with a large enough effect in the polarisation, with a control signal flat (not every such curve was filed as active); inconclusive = small, poorly fitted or top-dose-only effect, or effect the other way, or a change in a side signal; inactive = no such curve, though single readings can be large or run the other way; the % refers to the polarisation. Where the call is inconclusive, the potency comes from a doubtful curve fit. “Side channel” marks fits to a control or component signal instead of the main read-out.
# Target: Menin (Homo sapiens) (UniProt O00255)
# UniProt O00255, sequence (O00255 whole entry, looked up): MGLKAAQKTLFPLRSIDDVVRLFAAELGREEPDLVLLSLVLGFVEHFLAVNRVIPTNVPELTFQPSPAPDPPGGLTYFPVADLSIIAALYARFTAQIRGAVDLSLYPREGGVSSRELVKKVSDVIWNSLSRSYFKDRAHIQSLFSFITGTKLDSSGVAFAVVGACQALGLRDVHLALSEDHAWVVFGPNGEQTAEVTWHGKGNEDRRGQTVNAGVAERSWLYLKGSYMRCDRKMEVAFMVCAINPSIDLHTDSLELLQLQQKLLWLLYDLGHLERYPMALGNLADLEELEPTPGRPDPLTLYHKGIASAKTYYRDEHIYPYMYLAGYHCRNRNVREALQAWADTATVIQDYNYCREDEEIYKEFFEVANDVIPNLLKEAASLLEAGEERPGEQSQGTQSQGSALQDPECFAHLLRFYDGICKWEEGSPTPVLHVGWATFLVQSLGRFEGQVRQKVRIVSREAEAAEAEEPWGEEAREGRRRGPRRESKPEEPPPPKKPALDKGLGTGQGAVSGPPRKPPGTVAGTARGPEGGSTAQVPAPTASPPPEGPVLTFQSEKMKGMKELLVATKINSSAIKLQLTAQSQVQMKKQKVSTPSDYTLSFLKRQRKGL
# Assay: qHTS Assay for Inhibitors Targeting the Menin-MLL Interaction in MLL Related Leukemias: Competition With Texas Red Labeled MLL-derived Mutant Peptide; for FP activity change, negative = inhibition: % of control where 0% means no effect
# Conditions: fluorescence polarization; FP activity change, negative = inhibition: at 61.6 µM (top of the series)
# Potency is the fitted concentration of half-maximal effect; tags give direction and shape of the fitted curve or compound fluorescence and quenching.
Compound,Potency,"FP activity change, negative = inhibition"
Cc1ccc(CCSc2ccc(C(C)C)cc2)cn1,"inconclusive: 28.2 µM [fluorescent, side channel, single point]",
N=C1/C(=C\c2ccc(OC(=O)c3ccco3)cc2)C(=O)N=C2SC(N3CCCCC3)=NN12,"inconclusive: 14.1 µM [quencher, side channel, partial curve]",
Cc1ccc(O)c(NC(=O)CSc2n[nH]c(C)c2[N+](=O)[O-])c1,"inconclusive: 39.8 µM [quencher, side channel, single point]",
COc1ccc(C(=O)Cn2nc(CNc3ccc(Br)cc3)[n+]3c2CCCCC3)cc1,"inconclusive: 3.55 µM [fluorescent, side channel, full curve]",
Cc1nc2ccccn2c(=O)c1CCN1CCC(C(=O)c2ccc(F)cc2)CC1,"inconclusive: 39.8 µM [inhibitor, single point]",
CC(=O)N1CCN(c2ccc(Nc3ncnc4c3oc3ccccc34)cc2)CC1,"inconclusive: 15.8 µM [quencher, side channel, partial curve]",
O=C(CCOc1ccccc1)Nc1cccc(S(=O)(=O)Nc2ccccc2Cl)c1,"inconclusive: 12.6 µM [quencher, side channel, partial curve]",
CCN(CC)S(=O)(=O)c1ccc(OC)c(NC(=O)c2cccs2)c1,"inconclusive: 8.91 µM [fluorescent, side channel, partial curve]",
CCOC(=O)C1(CCOc2ccccc2)CCN(Cc2cc(OC)c3c(c2)OCO3)CC1,"inconclusive: 8.91 µM [fluorescent, side channel, full curve]",
CCN(CC)c1ccc(NC(=O)c2cnccn2)cc1S(=O)(=O)Nc1ccc(OC)cc1,"inconclusive: 31.6 µM [quencher, side channel, single point]",
CCOC(=O)Nc1cc(Br)c2c(c1)OCCO2,"inconclusive: 28.2 µM [inhibitor, single point]",
COc1ccc(NC(=O)CN2c3cccc4cccc(c34)S2(=O)=O)cc1,"inconclusive: 3.16 µM [quencher, side channel, full curve]",
Cc1nn2c3c(cnc2c1-c1ccccc1)C(=O)CC(c1ccco1)C3 (centres undefined),"inconclusive: 35.5 µM [quencher, side channel, partial curve]",
CC(C)CCN(C(=O)Cc1ccc(Cl)c(Cl)c1)c1c(N)n(Cc2ccccc2)c(=O)[nH]c1=O,"inconclusive: 39.8 µM [fluorescent, side channel, single point]",
COc1cccc(CNC(=O)CSc2nnc3c(n2)[nH]c2ccc(F)cc23)c1,"inconclusive: 35.5 µM [fluorescent, side channel, single point]",
CCCCC(=O)Nc1ccc(NC(=S)NC(=O)c2cccs2)cc1OC,"inconclusive: 22.4 µM [quencher, side channel, single point]",
N#Cc1c(-c2ccccc2Cl)noc1/C=C/Nc1ccc(C(=O)O)cc1,"inconclusive: 31.6 µM [quencher, side channel, single point]",
CCc1nc2ccccc2c(C(=O)OCC(=O)Nc2ccc(S(=O)(=O)N3CCOCC3)cc2)c1C,"inconclusive: 2.82 µM [quencher, side channel, full curve, poor fit]",
C/C(=N\NS(=O)(=O)c1cccc([N+](=O)[O-])c1)c1cc2ccccc2o1,"inconclusive: 28.2 µM [quencher, side channel, partial curve]",
Cc1ccc(S(=O)(=O)Nc2cc(C)cn(Cc3ccc(F)cc3)c2=O)cc1,"inconclusive: 28.2 µM [inhibitor, single point]",
COc1ccc(CCC(C)NCCc2ccc(Cl)cc2Cl)cc1 (centres undefined),"inconclusive: 28.2 µM [fluorescent, side channel, single point]",
Cc1ccc(-n2c3nc(=O)[nH]c(=O)c-3cc3cc([N+](=O)[O-])ccc32)cc1,"inconclusive: 28.2 µM [quencher, side channel, single point]",
Cc1ccc(C)c(S(=O)(=O)C(C#N)c2nc3ccccc3nc2N2CCOCC2)c1 (centres undefined),"inconclusive: 25.1 µM [quencher, side channel, single point]",
CC(C)C(=O)Nc1ccc(C(=O)Nc2ccc(S(=O)(=O)N3CCOCC3)cc2)cc1,"inconclusive: 28.2 µM [quencher, side channel, single point]",
Cc1cc2c(cc1C)[n+](C)cn2CC(O)COCc1ccccc1 (centres undefined),,inactive: -1.96%
COc1ccc(C(=O)c2ccc(N(C)C)cc2)c(OC)c1,"inconclusive: 15.8 µM [inhibitor, single point]",
COc1cc2c(C)c3c4c(cc(OC)c(OC)c4c2cc1OC)CCN3C,"inconclusive: 10 µM [quencher, side channel, partial curve]",

Compound,Potency,"FP activity change, negative = inhibition"
Cc1ccc(S(=O)(=O)N2CCc3nc(-c4ccccc4)c4c(c3C2)CO[C@@H](C)C4)cc1,,inactive: -10% [at 11.7 µM]
COc1ccc(C(=O)/C(C#N)=N/Nc2cccc([N+](=O)[O-])c2)cc1,"inconclusive: 17.8 µM [quencher, side channel, partial curve]",
COc1ccc2nc(NC(=O)C3CCN(S(=O)(=O)c4cccnc4)CC3)sc2c1,"inconclusive: 25.1 µM [quencher, side channel, single point]",
Cc1cc(OCc2ccc(C(=O)Nc3ccc(C(=O)O)cc3)o2)ccc1Cl,"inconclusive: 14.1 µM [quencher, side channel, partial curve]",
O=C(Nc1cccc(-c2nc3ccccc3s2)c1)c1cc(-n2cnnc2)ccc1Cl,"inconclusive: 39.8 µM [quencher, side channel, single point]",
COc1cc(/C=N/NC(=O)c2ccc(COc3cc(C)ccc3C(C)C)cc2)cc(OC)c1O,"inconclusive: 12.6 µM [quencher, side channel, partial curve]",
Cc1cc(C(=O)C(C)Cl)c(C)n1Cc1ccco1 (centres undefined),"inconclusive: 12.6 µM [quencher, side channel, partial curve]",
COc1ccc(NC2=CC(c3ccc(F)cc3)N(c3ccc(OC)cc3)C2=O)cc1 (centres undefined),,inactive: -2.46%
CC(=O)CCc1c(C)[nH]c2ccc(NC(C)=O)cc2c1=O,,inactive: -9.34%
Cc1cccc(C)c1NC(=S)N(CCN(C)C)C(C)c1ccccn1 (centres undefined),,inactive: 0.94%
C=CCN1C(=O)/C(=C\c2ccco2)C(C(=O)OC)=C1C,"inconclusive: 35.5 µM [inhibitor, single point]",
CCOC(=O)c1c(-c2ccccc2)oc2ccc(O)c(CN3CCN(C)CC3)c12,"inconclusive: 8.91 µM [fluorescent, side channel, full curve, poor fit]",
CC(C)C[C@H](NC(=O)[C@H](Cc1ccccc1)C[C@@H](O)[C@H](Cc1ccccc1)NC(=O)OC(C)(C)C)C(=O)N[C@@H](Cc1ccccc1)C(N)=O,"inconclusive: 2.82 µM [fluorescent, side channel, full curve]",
CS(=O)(=O)c1nsc2nc(=O)c(/C=C3\C=Nc4ccccc43)c(N)n12,"inconclusive: 28.2 µM [quencher, side channel, partial curve]",
O=C(NCC(=O)N(Cc1ccccc1)C(C(=O)NC1CCCC1)c1ccco1)c1ccco1 (centres undefined),"inconclusive: 2.82 µM [inhibitor, partial curve]",
CCOc1ccc(-n2ccnc2SCC(=O)N2CCCc3ccccc32)cc1,"inconclusive: 44.7 µM [inhibitor, partial curve, poor fit]",
COCc1c(C(=O)N/N=C/c2cccc3ccccc23)nnn1-c1nonc1N,"inconclusive: 39.8 µM [fluorescent, side channel, single point]",
O=C(/C=C/c1ccc(OCCCF)cc1)NCc1ccc(Cl)cc1,"inconclusive: 39.8 µM [inhibitor, single point]",
COc1ccc(C(=O)Nc2ccc(NC(=O)C3CCCCC3)nc2)cc1,"inconclusive: 25.1 µM [fluorescent, side channel, single point]",
Cc1ccc(NC2=C(Cl)C(=O)c3ccccc3C2=O)cc1,"inconclusive: 10 µM [inhibitor, full curve, poor fit]",
COc1ccc(NC(=O)CCC(=O)N/N=C/c2ccc([N+](=O)[O-])s2)cc1,"inconclusive: 25.1 µM [quencher, side channel, single point]",
CSc1ccc(S(=O)(=O)N2CCC(C(=O)NCc3ccco3)CC2)cc1,"inconclusive: 0.631 µM [inhibitor, full curve, poor fit]",
CC(=O)c1cccc(NC(=O)CC2S/C(=N/N=C/c3cccs3)NC2=O)c1 (centres undefined),"inconclusive: 39.8 µM [inhibitor, single point]",
O=C(CCn1c(=O)oc2ccccc21)Nc1cccc(Cl)c1,"inconclusive: 28.2 µM [quencher, side channel, partial curve]",
CCN(CC)c1ccc(N=Cc2ccc(N(CC)CC)cc2O)cc1,"inconclusive: 39.8 µM [fluorescent, side channel, single point]",
CCNCC(=O)N1c2ccccc2CCc2ccc(NC(=O)OCC)cc21,"inconclusive: 14.1 µM [fluorescent, side channel, partial curve]",
Nc1ccccc1-c1nc2ccccc2s1,"inconclusive: 12.6 µM [quencher, side channel, partial curve]",
